# Data: PubChem BioAssay AID1745849 (National Center for Advancing Translational Sciences (NCATS), 2022)
# Out of some 2,100 compounds screened, about 320 (15%) were called active. The inconclusive results got no clear call from the source; some entries with a clear call stand among them for comparison. The call rests on the fitted dose curve; in most records, active means well fitted cell-killing curve with a large enough effect; inconclusive means small, poorly fitted or top-dose-only effect, or effect the other way; inactive means flat fitted curve, though single readings scatter. Potencies beside an inconclusive call are fits to weak or partial responses and may not hold up.
# Experiment: Viability Counterscreen for CMV-Luciferase Assay of Inhibitors of ATXN expression; further: nearly all actives have a fitted effect of over 55% in size
# Conditions: HEK-293 CMV-luciferase cells viability, protease fluorescence, 24 h
# How it was run: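 In the same wells, a multiplexed format measured viability and then the CMV-luciferase signal in HEK-293 cells following 24 hr compound exposure at several concentrations. The viability substrate was Gly-Phe-AFC at 25 uM final.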
# Potency means the concentration at half of the fitted maximal effect; tags describe the fitted curve by direction and shape.
row,Compound,Potency
1,COc1cccc(CNc2nc3cc(-c4ccccc4)sc3c(=O)n2C)c1OC,"inconclusive: 10 µM [cytotoxic, partial curve, poor fit]"
2,COc1ccc(NC(=S)N(CCCN2CCOCC2)Cc2cn(C)c3ccccc23)cc1,"inconclusive: 11.2 µM [cytotoxic, partial curve, poor fit]"
3,CCOC(=O)c1c(C)sc2c1N(C(=O)CN(CC)CC)c1cc(Cl)ccc1S2,active: 15.8 µM
4,O=[N+]([O-])c1ccc(/C=N/N=C/c2ccc([N+](=O)[O-])o2)o1,active: 4.47 µM
5,COc1ccc(Cc2nnc(N/N=C/c3ccccc3O)[nH]c2=O)cc1OC,active: 5.62 µM
6,Oc1cccc(C(Nc2nccs2)c2ccc3cccnc3c2O)c1 (stereo not given),"inconclusive: 2 µM [cytotoxic, partial curve, poor fit]"
7,O=C(Nc1nc(-c2ccccn2)cs1)c1cc(Cl)ccc1[N+](=O)[O-],active: 3.16 µM
8,COc1cc([C@@H]2c3cc4c(cc3[C@@H](O[C@@H]3O[C@@H]5CO[C@@H](C)O[C@H]5[C@H](O)[C@H]3O)[C@H]3COC(=O)[C@H]23)OCO4)cc(OC)c1O,"inconclusive: 0.178 µM [cytotoxic, full curve, poor fit]"
9,CCc1noc(C)c1C(=O)N1CCSC1=Nc1cccc(Cl)c1C,inactive
10,CCOC(=O)c1cnc(-n2nc(C)cc2C)nc1NC1CCCC1,inactive
11,O=C(CCC(=O)Nc1ccc(Br)cc1)N/N=C/c1ccccc1O,"inconclusive: 2.82 µM [cytotoxic, partial curve, poor fit]"
12,CCc1nc2c(OCCC3CCCCC3)cccn2c1N(C=O)Cc1ccc(OC)cc1,"inconclusive: 39.8 µM [cytotoxic, single point]"
13,Cc1nc2ccc(NC(=O)c3ccc(S(=O)(=O)N(C)c4ccccc4)cc3)cc2s1,inactive
14,Cc1cnc(C(=O)NNC(=O)c2ccc(Br)cc2)cn1,"inconclusive: 22.4 µM [cytotoxic, single point]"
15,Cc1ccc(OCCn2cc(/C=N/NC(=O)c3ccncc3)c3ccccc32)cc1,inactive
16,Cc1ccc(/C=N/Nc2ccnc3cc(Cl)ccc23)c(C)c1,"inconclusive: 39.8 µM [cytotoxic, single point]"
17,Cn1c2c(c(=O)n(C)c1=O)C(C(F)(F)F)(C(F)(F)F)N=C(CCC1CCCCC1)N2,"inconclusive: 12.6 µM [cytotoxic, partial curve]"
18,COc1ccc(/C=C2\SC(=S)N(CCCC(=O)NNC(=O)c3ccccc3O)C2=O)cc1,active: 20 µM
19,Cc1cc(C)cc(OCC(=O)NNC(=S)NC(=O)C2CC2)c1,inactive
20,CN(C)CCNCCCNc1c2ccccc2nc2cccc([N+](=O)[O-])c12,"inconclusive: 0.112 µM [cytotoxic, partial curve, poor fit]"
21,O=C(CNC(=O)c1ccccc1F)N/N=C/c1cc(Br)ccc1OC(=O)/C=C/c1ccco1,"inconclusive: 1.41 µM [cytotoxic, full curve, poor fit]"
22,Cn1c(CCc2nc3ccccc3[nH]2)nnc1SCC#N,inactive
23,Cc1ccc(C(=O)NNC(=O)CCCN2C(=O)/C(=C/c3ccccc3Cl)SC2=S)cc1,inactive
24,COc1ccc(-c2cc(NC=O)c3ncc(-c4cccc(C(=O)NCCN(C)C)c4)n3c2)cc1,"inconclusive: 10 µM [cytotoxic, partial curve, poor fit]"

row,Compound,Potency
1,CCc1ccc(NC(=O)C2CCN(S(=O)(=O)c3ccc4c(c3)CC(C)N4C(C)=O)CC2)cc1 (stereo not given),"inconclusive: 0.891 µM [rising, full curve, poor fit]"
2,Cc1nc(N2CCN(c3ccccn3)CC2)c2c(C)c(C(=O)N3CCN(c4ccc(F)cc4)CC3)sc2n1,"inconclusive: 28.2 µM [cytotoxic, single point]"
3,Oc1ccc(N2CCN(c3ccnc4cc(Cl)ccc34)CC2)cc1,"inconclusive: 7.94 µM [cytotoxic, partial curve, poor fit]"
4,C/C(=N\NC(=O)c1cc(C2CC2)nc2ccccc12)c1ccc(O)cc1O,inactive
5,O=[N+]([O-])c1ccc2[nH]cc(S(=O)(=O)N3CCN(c4cccc(Cl)c4)CC3)c2c1,"inconclusive: 22.4 µM [cytotoxic, single point]"
6,COCCCNCCCOc1ccc(Cl)cc1C(C)(C)C,active: 25.1 µM
7,O=C(N/N=C/c1ccccc1O)c1cccc(C(F)(F)F)c1,inactive
8,Cc1cc(Br)c(OCc2ccc(C(=O)N/N=C3\CC4CC=CC34)cc2)c(Br)c1 (stereo not given),"inconclusive: 22.4 µM [cytotoxic, partial curve, poor fit]"
9,Cc1c(N=C2C=CC(=O)c3ccccc32)c(=O)n(-c2ccccc2)n1C,active: 28.2 µM
10,O=C(N/N=C/c1ccc([N+](=O)[O-])s1)c1ccccc1,"inconclusive: 17.8 µM [cytotoxic, partial curve]"
11,C[n+]1c2n(c3ccccc31)N=C(c1ccccc1)CS2,"inconclusive: 14.1 µM [cytotoxic, partial curve, poor fit]"
12,C=CCc1cccc(CNc2nc3ccccc3n2C(C)C)c1O,inactive
13,O=C(N/N=C/c1cc(Br)cc([N+](=O)[O-])c1O)c1ccc(NC(=O)c2ccc(F)cc2)cc1,"inconclusive: 4.47 µM [cytotoxic, partial curve]"
14,O=C(N/N=C\c1c(O)ccc2ccccc12)c1cncc(Br)c1,"inconclusive: 6.31 µM [rising, single point]"
15,COc1cccc(Nc2nc(C(N)Cc3ccc(F)cc3)cs2)n1 (stereo not given),"inconclusive: 22.4 µM [cytotoxic, partial curve]"
16,CCN(CC(=O)Nc1cccc(OC)c1)CC(=O)Nc1ccc(Br)c(C)c1,active: 17.8 µM
17,CCn1cc(CN2CCC(C(=O)Nc3cccc(-c4cccc(Cl)c4)c3)CC2)c(C)n1,"inconclusive: 14.1 µM [cytotoxic, partial curve, poor fit]"
18,CC(=O)NC(c1ccc(C)cc1)c1cc(Cl)c2cccnc2c1O (stereo not given),"inconclusive: 2.24 µM [cytotoxic, full curve, poor fit]"
19,O=C1N(c2ccccc2)C[C@@H]2C[C@@H](c3cc4ccccc4o3)N3CCC[C@@]123,active: 0.355 µM
20,CCOc1ccc2[nH]c3c(NCCC(C)C)ncnc3c2c1,"inconclusive: 28.2 µM [cytotoxic, single point]"
21,COc1cccc(-c2nn(C)c3sc(C(=O)NCCCN(C)Cc4ccccc4)cc23)c1,inactive
22,C=CS(=O)(=O)c1c2cc(OC)ccc2nc2ccc(OC)cc12,"inconclusive: 35.5 µM [rising, partial curve]"
23,CCc1cc(-c2nnn(CCC3COCCO3)c2CC)ccc1-c1cn(CCc2c[nH]c3ccccc23)nn1 (stereo not given),inactive
24,O=C(Nc1cccc(-c2cccc(Cl)c2)c1)C1CCN(C2CCC2)CC1,"inconclusive: 17.8 µM [cytotoxic, partial curve, poor fit]"

row,Compound,Potency
1,Cc1cc(OCc2nc(N)nc(N)c2-c2ccc(Cl)c(Cl)c2)ccc1[N+](=O)[O-],inactive
2,Cc1cc(Br)ccc1NC(=O)c1cnc(N2CCN(c3ccccn3)CC2)c2ccccc12,inactive
3,CCC(C)(C)c1ccc(Oc2ccc(N)cc2)cc1,inactive
4,COc1ccc(-c2csc(NC(=O)C3CCN(c4ncnc5sc(C)c(C)c45)CC3)n2)cc1OC,active: 8.91 µM
5,CC(=O)Nc1ccc(C(=O)N/N=C/c2cc(Br)cc(Br)c2O)cc1,"inconclusive: 39.8 µM [rising, single point]"
6,Cn1c2c(c(=O)[nH]c1=O)C(c1cccc(O)c1)C1=C(N2)c2ccccc2C1=O (stereo not given),active: 11.2 µM
7,COc1cccc(/C=N/NC(=O)CSc2ccccc2C)c1O,"inconclusive: 7.08 µM [cytotoxic, partial curve]"
8,Cc1ccc2nc(NC(=O)CSCC(=O)OCC(=O)c3ccc(Br)cc3)sc2c1,inactive
9,COC(=O)c1cc(Cl)ccc1NCC(N)c1ccccc1 (stereo not given),inactive
10,C[C@@H]1CN([C@@H](C)CO)S(=O)(=O)c2ccc(C#CC3CCCCC3)cc2O[C@@H]1CN(C)Cc1cccnc1,"inconclusive: 28.2 µM [cytotoxic, single point]"
11,CCCCn1c(SCC(=O)Nc2cc(C(F)(F)F)cc(C(F)(F)F)c2)nnc1C(CC)N(C)C (stereo not given),inactive
12,O=C(CCN1C(=O)C2CC=CCC2C1=O)Nc1nc(-c2ccc(F)c(F)c2)cs1 (stereo not given),inactive
13,CC(=O)c1sc(NC(=O)C2(F)C(F)(F)C(F)(F)C(F)(F)C(F)(F)C2(F)F)nc1C,"inconclusive: 1.58 µM [cytotoxic, partial curve, poor fit]"
14,CCN1CC2=C(OC(N)=C(C#N)C2c2cccs2)/C(=C\c2cccs2)C1 (stereo not given),inactive
15,COc1cccc(/C=C2/SC(=S)N(CCCC(=O)Nc3ccc(O)cc3)C2=O)c1,active: 3.98 µM
16,O=C(O)COc1ccc2oc3ccccc3c2c1,inactive
17,CCN1c2ccccc2NC2N=C(OC)C(c3ccccc3)C21 (stereo not given),active: 12.6 µM
18,CCCc1cc(C(=O)Nc2ccc(C(=O)c3ccc(C)cc3)cc2)n(C)n1,inactive
19,O=C(Nc1ccc(Br)c(C(F)(F)F)c1)c1ccc(C(F)(F)F)cc1,"inconclusive: 7.08 µM [cytotoxic, single point]"
20,O=S(=O)(Cc1cc(NCc2ccccc2)nc(-c2ccccn2)n1)c1ccccc1,inactive
21,COc1cc(C(=O)Oc2cccc(Nc3ncnc4ccccc34)c2)cc(OC)c1OC,"inconclusive: 8.91 µM [cytotoxic, single point]"
22,CS(=O)(=O)N1CCC(Oc2cccc(C(=O)NCCCC3CCCC3)c2)CC1,"inconclusive: 25.1 µM [cytotoxic, single point]"
